# From publication PMC4336329 (PLoS ONE, 2015)
# Out of some 310,000 compounds screened, about 14,000 (4.5%) showed an effect of 50% or more. The effect is printed as a negative number. Some of the results follow.
# Biological target: human ether-à-go-go-related gene (hERG) potassium channel (human, UniProt Q12809)
# Assay: primary screen, population patch clamp on CHO cells stably expressing hERG
# 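Further: peak tail current of the secondary pulse compared with the same well before compound.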
# Sequence of human ether-à-go-go-related gene (hERG) potassium channel (Q12809 whole entry, looked up): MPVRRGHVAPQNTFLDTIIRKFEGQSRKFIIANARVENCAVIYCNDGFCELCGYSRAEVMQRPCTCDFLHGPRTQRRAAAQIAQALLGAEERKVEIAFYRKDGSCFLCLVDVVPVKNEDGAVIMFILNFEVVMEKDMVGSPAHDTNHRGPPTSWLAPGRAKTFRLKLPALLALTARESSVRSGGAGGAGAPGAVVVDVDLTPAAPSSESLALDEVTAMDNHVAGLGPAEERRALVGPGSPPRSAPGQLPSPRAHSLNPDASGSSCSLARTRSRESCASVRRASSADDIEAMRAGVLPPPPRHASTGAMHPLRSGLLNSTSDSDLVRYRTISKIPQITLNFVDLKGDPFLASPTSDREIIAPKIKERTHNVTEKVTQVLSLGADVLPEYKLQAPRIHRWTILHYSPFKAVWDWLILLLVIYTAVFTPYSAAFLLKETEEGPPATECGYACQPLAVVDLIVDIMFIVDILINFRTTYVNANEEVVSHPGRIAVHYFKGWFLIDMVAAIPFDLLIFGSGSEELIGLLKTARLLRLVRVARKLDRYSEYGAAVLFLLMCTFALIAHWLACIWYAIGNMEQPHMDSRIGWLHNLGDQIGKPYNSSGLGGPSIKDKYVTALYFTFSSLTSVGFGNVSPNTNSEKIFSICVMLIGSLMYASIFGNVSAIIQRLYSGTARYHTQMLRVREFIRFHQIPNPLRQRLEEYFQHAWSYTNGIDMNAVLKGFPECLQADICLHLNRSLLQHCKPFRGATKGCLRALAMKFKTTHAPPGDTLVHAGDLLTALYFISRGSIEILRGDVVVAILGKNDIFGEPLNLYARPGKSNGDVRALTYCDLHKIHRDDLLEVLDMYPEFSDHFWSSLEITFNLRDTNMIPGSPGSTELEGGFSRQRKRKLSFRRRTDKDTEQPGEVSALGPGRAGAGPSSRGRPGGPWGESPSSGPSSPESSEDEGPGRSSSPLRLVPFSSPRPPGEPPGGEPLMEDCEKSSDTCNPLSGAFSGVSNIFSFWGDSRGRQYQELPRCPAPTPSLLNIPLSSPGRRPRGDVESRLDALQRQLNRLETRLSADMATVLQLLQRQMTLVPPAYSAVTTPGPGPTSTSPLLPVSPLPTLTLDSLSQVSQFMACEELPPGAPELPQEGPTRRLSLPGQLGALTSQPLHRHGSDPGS
row,Structure (SMILES),"hERG current change (%, negative = inhibition) at 10uM"
1,O=C(Nc1ccc(N2CCCC2=O)cc1)c1cncc(Br)c1,22.5%
2,COc1cc2c(cc1OC)C(c1cc3ccccc3oc1=O)=NC(C)(C)C2,9.04%
3,COc1cccc(OC)c1C(=O)NC(=S)N1C[C@H]2C[C@H](C1)c1cccc(=O)n1C2,2.4%
4,Cc1ccc(CN2CCN(/N=C/c3ccc(C(F)(F)F)cc3)CC2)c(C)c1,-4.93%
5,COc1ccc(-c2nc(CS(=O)(=O)CC(=O)NC3CCCCCC3)c(C)o2)cc1,11.7%
6,CN1CCCN(C(=O)c2cccc(Cl)c2)CC1,0.367%
7,O=S(=O)(Nc1ccc(Cl)cn1)c1cccs1,13.2%
8,Cc1ccccc1NC(=S)N(C)CCc1ccccn1,8.57%
9,O=C(NCc1ccco1)c1cc(-c2cccnc2)nc2ccc(Cl)cc12,-36.3%
10,O=C(Nc1cccc2ccccc12)c1cc2c(cc1Br)OCO2,-23.4%
11,CCN1CCN(c2cc3c(nn2)Oc2ccccc2N3C)CC1,-41.1%
12,CCC(=O)Nc1cccc(NC(=S)NC(=O)c2cccc(C)c2)c1,-8.02%
13,COc1ccc(C(=O)OCC(=O)NC2CC2)cc1[N+](=O)[O-],15.8%
14,O=C(COC(=O)c1ccccc1OC(F)F)Nc1ccc(N2CCCCC2)cc1,9.25%
15,COc1cccc(NC(=O)CN(C)C(=O)c2sc3cc(Cl)ccc3c2Cl)c1,-18.5%
16,CC1(C)CC[C@]2(C)CC[C@]3(C)C4C[C@@H]5OO[C@@]6(O5)C(CCCC6(C)C)[C@]4(C)CC[C@@]3(C)C2C1 (stereo partly shown),8.78%
17,Cc1cc(NC(=O)c2cc(S(=O)(=O)N3CCCCC3)ccc2C)n(-c2ccccn2)n1,-4.7%
18,CCN(CC)c1ccc(-c2nc3cnccc3n2C)cc1,-25.9%
19,CCNC(=S)NNC(=O)c1ccccc1Cl,4.98%
20,COc1ccccc1N1CCN(C(=O)COc2cc(C)ccc2C)CC1,-18.3%
21,CCOC(=O)c1nc(Nc2ccc(C(=O)OC)cc2)c2ccccc2n1,0.323%
22,CCn1c(/C=C2/C(=O)N(C)c3ccccc32)nc2ccccc2c1=O,6.83%
23,CCOC(=O)c1sc2ccccc2c1OC(=O)c1ccc(C)cc1,-12.3%
24,C[C@H](NC(=O)c1nc[nH]c1C(=O)N[C@@H](CCCC[NH3+])C(=O)OC(C)(C)C)C(=O)OC(C)(C)C.[Cl-],9.19%
25,COc1ccc(CCNS(=O)(=O)c2cn(C)nc2C)cc1OC,19.9%
26,O=C(CSc1nc(-c2ccc(F)cc2)cs1)N1CCc2ccccc21,-1.23%
27,COC(=O)C1(C(F)(F)F)N=C(N(C)C)OC(N(C)C)=N1,2.85%
28,O=C(COC(=O)c1c[nH]c(=O)[nH]c1=O)NCc1ccccc1,-12.2%

row,Structure (SMILES),"hERG current change (%, negative = inhibition) at 10uM"
1,CCn1c(SC(C)C(=O)NCC2CCCO2)nc2scc(-c3ccccc3)c2c1=O (stereo not shown),-28.7%
2,CCC(C)NC(=O)[C@@H]1CCCN1C(=O)C1CCN(S(=O)(=O)c2ccc(C)cc2)CC1 (stereo partly shown),18.1%
3,COc1ccc(S(=O)(=O)N(C)c2ccc(OC(=O)C(C)Oc3ccc(F)cc3)cc2)cc1 (stereo not shown),-14.5%
4,CC1C2CC(CC1(C)C)N(C(=O)Nc1ccc3nccnc3c1)C2 (stereo not shown),3.06%
5,CS(=O)(=O)N(Cc1ccco1)CC(O)Cn1c2ccccc2c2ccccc21 (stereo not shown),4.1%
6,CCc1ccccc1NC(=O)c1ccc(Cn2cc([N+](=O)[O-])cn2)cc1,-29.6%
7,CCOC(=O)N1C2=NC(C(=O)OC)=C(C(=O)OC)[C@@H]3N(C)c4ccccc4[C@]23C[C@H]1C(=O)OC,0.337%
8,CC1CCCCN1C(=O)COC(=O)C1CCN(S(=O)(=O)c2ccc3c(c2)OCCO3)CC1 (stereo not shown),10.5%
9,CN(CC(=O)N1CCCCCC1)S(=O)(=O)c1cccc2cccnc12,-9.23%
10,O=C(CSc1nc2cc(Cl)ccc2o1)N1CCOCC1,-5.79%
11,COc1cccc(CN2CC(C(=O)NCCCn3cccn3)CCC2=O)c1 (stereo not shown),6.69%
12,COCC(=O)Nc1ccc(C)c(Cl)c1,14.4%
13,CCc1cc(=O)oc2c3c(cc(OCC(=O)Nc4cccnc4)c12)OC(C)(C)CC3,14%
14,COc1cc(OC)cc(C(=O)NCC(=O)OCC(=O)c2cc(OC)ccc2OC)c1,2.7%
15,COc1ccc(C2CC3(O)NC(=O)C(C#N)(C3C)C2(C#N)C#N)cc1 (stereo not shown),8.56%
16,O=C(NCc1ccco1)c1cccc(NS(=O)(=O)c2cccc(F)c2)c1,-9.1%
17,CC(=O)c1ccc(CC2SC(N)=NC2=O)cc1 (stereo not shown),-2.15%
18,O=C(CCS(=O)(=O)c1ccc(Br)cc1)NCCc1ccc(Cl)cc1,1.65%
19,COc1ccc2oc(C(=O)OC(C)C(=O)Nc3ccc(N4CCOCC4)cc3)c(C)c2c1 (stereo not shown),-0.65%
20,CCC(C(=O)NC1CCCC1)N(Cc1ccccc1Cl)C(=O)c1snc(C(N)=O)c1N (stereo not shown),-14.6%
21,CC1CCc2c(sc(N)c2C(=O)OC(C)C)C1 (stereo not shown),-6.65%
22,CC1CCCN(C(=O)CSc2nnc3ccccn23)C1 (stereo not shown),4.63%
23,CC(=O)Nc1nc(SCC(=O)Nc2nnc(C)s2)[nH]c(=O)c1NC(=O)c1cccs1,5.63%
24,O=C(CN1C(=O)NC(c2ccccc2)(c2ccccc2)C1=O)c1c[nH]c2ccccc12,6.51%
25,CCc1ccc2oc(=O)cc(CN3CCCCC3)c2c1,2.85%
26,CCCCOCCCNCC(=O)Nc1ccc(S(N)(=O)=O)cc1,-2.34%
27,O=C(N/N=C/c1ccc([N+](=O)[O-])cc1)c1cc(C2CC2)nc2ccccc12,6.45%
